In article PMC12820563:
Some of the results follow. The list includes weakly bound sequences.

molecular target: T1, MBP-FoxP3dN (UniProt Q99JB6); assay: PD-seq (MBP pull-down with sequencing); settings: 20 mM Tris-HCl pH 7.5, 100 mM NaCl, 1.5 mM MgCl2, 0.4 uM protein, 0.1 uM dsDNA library, 30 min, room temperature, amylose pull-down; high values mean tight binding; double strand, one strand shown
T1 sequence: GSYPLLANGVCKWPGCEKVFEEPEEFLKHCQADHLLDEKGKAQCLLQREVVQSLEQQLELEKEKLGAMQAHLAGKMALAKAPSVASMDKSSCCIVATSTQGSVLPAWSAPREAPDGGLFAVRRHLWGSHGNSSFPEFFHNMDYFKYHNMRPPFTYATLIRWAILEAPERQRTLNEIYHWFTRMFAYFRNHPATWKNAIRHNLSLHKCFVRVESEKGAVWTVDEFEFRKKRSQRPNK

Row | Sequence | binding signal (RPM ratio (pull-down/input))
1 | GATGATTGTTCTCCCAGCTGATGAATTAGCTAGCTCGAGTAAACAAATTTTCCTAATCTTTCTGTTCAAGCGCCATCTAC | 0.53
2 | GATGATTGTTCTCCCAGCTGATGAATTACAATTGTCGAGTAAACAAATTTTCCTAATCTTTCTGTTCAAGCGCCATCTAC | 1.17
3 | GATGATTGTTCTCCCAGCTGATGAATTGTAGTTTTCGAGTAAACAAATTTTCCTAATCTTTCTGTTCAAGCGCCATCTAC | 1.66
4 | GATGATTGTTCTCCCAGCTGATGAATTACAAGTGTCGAGTAAACAAATTTTCCTAATCTTTCTGTTCAAGCGCCATCTAC | 0.639
5 | GATGATTGTTCTCCCAGCTGATGAATTGTAAGATTCGAGTAAACAAATTTTCCTAATCTTTCTGTTCAAGCGCCATCTAC | 0.321
6 | GATGATTGTTCTCCCAGCTGATGAATTGGAGTTATCGAGTAAACAAATTTTCCTAATCTTTCTGTTCAAGCGCCATCTAC | 0.699
7 | GATGATTGTTCTCCCAGCTGATGAATTGTAATTTTCGAGTAAACAAATTTTCCTAATCTTTCTGTTCAAGCGCCATCTAC | 0.962
8 | GATGATTGTTCTCCCAGCTGATGAATTTACAAGGTCGAGTAAACAAATTTTCCTAATCTTTCTGTTCAAGCGCCATCTAC | 0.347
9 | GATGATTGTTCTCCCAGCTGATGAATTAGCACGGTCGAGTAAACAAATTTTCCTAATCTTTCTGTTCAAGCGCCATCTAC | 0.294
10 | GATGATTGTTCTCCCAGCTGATGAATTTTCCGTATCGAGTAAACAAATTTTCCTAATCTTTCTGTTCAAGCGCCATCTAC | 0.355
11 | GATGATTGTTCTCCCAGCTGATGAATTATATTTCTCGAGTAAACAAATTTTCCTAATCTTTCTGTTCAAGCGCCATCTAC | 1.24
12 | GATGATTGTTCTCCCAGCTGATGAATTAGCTATGTCGAGTAAACAAATTTTCCTAATCTTTCTGTTCAAGCGCCATCTAC | 1.2
13 | GATGATTGTTCTCCCAGCTGATGAATTCGCTCTGTCGAGTAAACAAATTTTCCTAATCTTTCTGTTCAAGCGCCATCTAC | 0.305
14 | GATGATTGTTCTCCCAGCTGATGAATTCTCGACGTCGAGTAAACAAATTTTCCTAATCTTTCTGTTCAAGCGCCATCTAC | 0.26
15 | GATGATTGTTCTCCCAGCTGATGAATTGGGTGCATCGAGTAAACAAATTTTCCTAATCTTTCTGTTCAAGCGCCATCTAC | 1.52
16 | GATGATTGTTCTCCCAGCTGATGAATTATTTTCCTCGAGTAAACAAATTTTCCTAATCTTTCTGTTCAAGCGCCATCTAC | 0.995

Row | Sequence | binding signal (RPM ratio (pull-down/input))
17 | GATGATTGTTCTCCCAGCTGATGAATTCAGTCCTTCGAGTAAACAAATTTTCCTAATCTTTCTGTTCAAGCGCCATCTAC | 0.344
18 | GATGATTGTTCTCCCAGCTGATGAATTATTGTACTCGAGTAAACAAATTTTCCTAATCTTTCTGTTCAAGCGCCATCTAC | 0.792
19 | GATGATTGTTCTCCCAGCTGATGAATTAAAGTAATCGAGTAAACAAATTTTCCTAATCTTTCTGTTCAAGCGCCATCTAC | 0.578
20 | GATGATTGTTCTCCCAGCTGATGAATTCATAATTTCGAGTAAACAAATTTTCCTAATCTTTCTGTTCAAGCGCCATCTAC | 0.381
21 | GATGATTGTTCTCCCAGCTGATGAATTTTGAAGTTCGAGTAAACAAATTTTCCTAATCTTTCTGTTCAAGCGCCATCTAC | 0.363
22 | GATGATTGTTCTCCCAGCTGATGAATTAGCCTGATCGAGTAAACAAATTTTCCTAATCTTTCTGTTCAAGCGCCATCTAC | 0.321
23 | GATGATTGTTCTCCCAGCTGATGAATTCACGTGGTCGAGTAAACAAATTTTCCTAATCTTTCTGTTCAAGCGCCATCTAC | 0.36
24 | GATGATTGTTCTCCCAGCTGATGAATTTGAGCGCTCGAGTAAACAAATTTTCCTAATCTTTCTGTTCAAGCGCCATCTAC | 0.386
25 | GATGATTGTTCTCCCAGCTGATGAATTCCTTCCGTCGAGTAAACAAATTTTCCTAATCTTTCTGTTCAAGCGCCATCTAC | 0.198
26 | GATGATTGTTCTCCCAGCTGATGAATTATCGAGTTCGAGTAAACAAATTTTCCTAATCTTTCTGTTCAAGCGCCATCTAC | 0.427
27 | GATGATTGTTCTCCCAGCTGATGAATTGTATGTATCGAGTAAACAAATTTTCCTAATCTTTCTGTTCAAGCGCCATCTAC | 4.55
28 | GATGATTGTTCTCCCAGCTGATGAATTTTTGGGTTCGAGTAAACAAATTTTCCTAATCTTTCTGTTCAAGCGCCATCTAC | 0.314
29 | GATGATTGTTCTCCCAGCTGATGAATTCCGACATTCGAGTAAACAAATTTTCCTAATCTTTCTGTTCAAGCGCCATCTAC | 1.35
30 | GATGATTGTTCTCCCAGCTGATGAATTCGTATAATCGAGTAAACAAATTTTCCTAATCTTTCTGTTCAAGCGCCATCTAC | 0.733
31 | GATGATTGTTCTCCCAGCTGATGAATTTATCATATCGAGTAAACAAATTTTCCTAATCTTTCTGTTCAAGCGCCATCTAC | 1.41
32 | GATGATTGTTCTCCCAGCTGATGAATTAACAGAGTCGAGTAAACAAATTTTCCTAATCTTTCTGTTCAAGCGCCATCTAC | 0.209
